Experimental data: ChEMBL document CHEMBL4888484, “Replenishing the malaria drug discovery pipeline: Screening and hit evaluation of the MMV Hit Generation Library 1 (HGL1) against asexual blood stage Plasmodium falciparum ,using a nano luciferase reporter read-out” (2022)
Among all 150,000 compounds or so, about 540 (0.36%) showed an effect of 50% or more. This is one part of the list.

system: Plasmodium falciparum; assay: Primary screen in NF54 nanoGlo assay, in single point, at 2uM, 72h; a lower Z score goes with more inhibition; format: functional, Erythrocyte; details: timepoint 72 hour

Row | Compound | % Inhibition | Z score
1 | O=C(N[C@H]1CCN(C2CCC2)C1=O)c1cc(F)cc2ccoc12 | -4% | 0.51
2 | COc1ccc([C@H]2C[C@@H]2CC(=O)Nc2n[nH]c(C)c2-c2cccc(Cl)c2)cc1 | 2% | -0.29
3 | CCCN1C[C@@H](NS(=O)(=O)c2cnn(CC)c2)CC1=O | -4% | 0.45
4 | COc1ccc(N2CC3(CCN(C(=O)OCc4ccccc4)CC3)OC2=O)cc1OC | -7% | 1.09
5 | CCc1ccc([C@@H]2CCCCCN2Cc2nnc(C3CC3)o2)o1 | -2% | 0.24
6 | CCc1cc(NCCCc2c(C)n[nH]c2C)ncn1 | -2% | 0.41
7 | CC(C)N1CCC(N2CCC[C@H](C(=O)NCCc3ccccc3F)C2)CC1 | 2% | -0.29
8 | Cc1ccnc(NC(=O)c2ccc(-c3ccccc3)cc2)n1 | -3% | 0.3
9 | O=C(N[C@H]1CCN(c2nccs2)C1)c1ccncc1 | -11% | 2.12
10 | Cc1ccc(CN(Cc2ccccc2)Cc2nc(C(=O)NCCc3ccccn3)co2)c(C)c1 | -13% | 2.5
11 | N#Cc1ccccc1OCC(=O)OCCN1CCCC1=O | -8% | 1.14
12 | Cc1nc(C)c(C(=O)N2CC[C@]34C(=O)N(CC(=O)NCCCOc5cccc(c5)[C@H]23)c2ccccc24)s1 | -9% | 1.69
13 | CC(C(=O)NCC1CCCO1)N(C)Cc1nccn1CC(F)(F)F (configuration not stated) | -10% | 1.52
14 | COc1ccc(NC(=O)Cn2c(C)ccc2C)cc1N1CCCCS1(=O)=O | -11% | 1.13
15 | COc1ccc(S(=O)(=O)N2CCc3c(C(=O)NCc4ccncc4)cccc32)cc1 | -17% | 1.91
16 | Cc1cc(C(=O)NC[C@@H]2COc3ccccc3C2)c(C)n1C | -11% | 1.99
17 | O=C(c1sccc1S(=O)(=O)N1CCCC1)N1CCc2sccc2C1 | -4% | 0.74
18 | COc1ccc(CN2CCOC[C@H](O)C2)cc1 | 28% | -3.12
19 | Cc1cccc2c1N(C(=O)Cc1ccc(S(N)(=O)=O)s1)CC2 | 4% | -0.47
20 | CC(C)c1cncnc1N1CC(c2cccnc2)C1 | -13% | 1.24
21 | C[C@@H](CN1CCc2ccccc2C1)NC(=O)c1cccc(-n2cnnc2)n1 | 0% | 0.06
22 | O[C@@H](CN(Cc1ccccc1)c1ncccn1)c1ccsc1 | -8% | 1.12

Row | Compound | % Inhibition | Z score
23 | CCN(Cc1cnc2ccccn12)C(=O)Nc1ccc(C)c(C)c1 | 5% | -0.77
24 | CC(C)(C)OC(=O)NCc1cc(C(=O)O)sc1Cl | -13% | 2.44
25 | Cc1cc(C)cc(-c2nc(-c3ccc4c(c3)ncn4CCC(=O)N3CCCC3)no2)c1 | -12% | 1.5
26 | Cn1ncnc1CN(CCc1ccccc1)c1ccc(O)cc1 | -9% | 1.43
27 | O=C(NC1CC2CCC1O2)N1CCCC1CC(O)c1ccco1 (configuration not stated) | 0% | 0.03
28 | CC(C)c1cnc(CNc2cccc(CO)c2)s1 | 9% | -1.12
29 | COCCN(C)c1ccc(NCc2cccc3cn[nH]c23)nc1 | -3% | 0.56
30 | CCCCCC1CCC(c2ccc(-c3nc(CCC)no3)cc2)CC1 (configuration not stated) | 0% | 0
31 | CC[C@H]1CN(S(=O)(=O)c2c(C)noc2C)CCO1 | -3% | 0.62
32 | N#Cc1ccccc1-c1nc2ccc(-c3ccc(C(F)(F)F)cc3)cc2o1 | -10% | 1.48
33 | O=C(NCCCN1CCCC1=O)C(=O)Nc1nccs1 | -19% | 2.97
34 | O=S(=O)(Cc1cccc(F)c1)N1C2CCC1CC(Oc1cccnc1)C2 (configuration not stated) | -9% | 1
35 | C[C@@H](C(=O)NC1(C(N)=O)CCCC1)n1ccnc1 | -3% | 0.36
36 | COc1cc(CCNC(=O)N2CCCC3CN(C)CCC32)ccc1F (configuration not stated) | -2% | 0.22
37 | CC(C)C(=O)Nc1cc2c(cc1S(=O)(=O)C1CCCCC1)n(C)c(=O)n2C | -10% | 1.56
38 | Cc1sc2ncnc(N3CC(n4cc(CO)nn4)C3)c2c1C | 3% | -0.49
39 | O=C1CCC2(CCN(C(=O)c3ccc4ccccc4n3)CC2)N1 | -10% | 1.42
40 | CC(C)(CC(=O)O)CC(=O)Nc1cccc(C(F)(F)F)c1 | -7% | 1.06
41 | C#CCNC(=O)N(C)Cc1cnc(C)s1 | -1% | 0.07
42 | COc1ccc(CN2CC3(CCCCC3)C[C@@H]2COc2ccncc2)cc1O | -10% | 1.72
43 | CN1CCN(CC(=O)Nc2sc3c(c2C#N)CCC3)CC1 | 2% | -0.3
44 | CCOC(=O)N1CCC(C)(CNc2cnn(CC(=O)NC)c2)CC1 | -7% | 0.7

Row | Compound | % Inhibition | Z score
45 | C[C@H](Nc1cccc(CO)c1)C(=O)NC(=O)NC1CC1 | -4% | 0.44
46 | O=C(CCc1ccccc1)Nc1nnc(-c2ccccc2)o1 | -10% | 1.79
47 | CN(C(=O)c1ccc(Cl)c(S(=O)(=O)NC(C)(C)C)c1)c1cnccn1 | 10% | -1.3
48 | O=C1c2ccccc2C(=O)N1CCN1CCN(CC2CC2)CC1 | -8% | 1.03
49 | C[C@@H](CC(=O)Nc1ncc(Br)cc1CO)n1cccn1 | -12% | 2.35
50 | CCC1CN(S(=O)(=O)C(C)C)CCC1NC(C)c1nc(C)no1 (configuration not stated) | 6% | -0.56
51 | CN1CCN(C(=O)c2cc(N(C)C)ccn2)c2ccccc2C1 | 6% | -0.56
52 | CC(C)[C@H](NC(=O)c1cc(Cn2cccn2)on1)c1nncn1C | -7% | 1.12
53 | Cn1nccc1[C@H](CO)NCc1ccsc1C(F)(F)F | -1% | 0.13
54 | CCc1ccccc1OCCN1CCN(C)C1=O | -8% | 1.03
55 | CCc1nc(CN(C)CCn2ccnc2C)n[nH]1 | -4% | 0.72
56 | COc1cccc(-c2nc(CN3CCC[C@H](COc4cccc(C)c4)C3)c(C)o2)c1OC | -2% | 0.27
57 | CCCn1ccnc1[C@H]1CC(=O)Nc2n[nH]c(C3CCC3)c21 | -6% | 1.05
58 | CCN(CC)c1onc(-c2ccccc2)c1CN(CC(C)C)C[C@H](O)COc1ccccc1 | -2% | 0.31
59 | C=CCNC(=O)c1ccc(N[C@@H](C)Cn2nc(C)cc2C)nc1 | -8% | 1.04
60 | Cc1ccc2c(CCNC(=O)NC[C@@H](C)O)cn(C)c2c1 | 6% | -0.6
61 | COc1cccc(S(=O)(=O)N2CCCN([C@H]3CCN(Cc4ccccc4)C3=O)CC2)c1 | -3% | 0.39
62 | CCn1cc(Cl)c(C(=O)N2CC[C@H](c3ncon3)C2)n1 | -7% | 1.15
63 | CC1CCCC(C)N1C(=O)c1nn2c(c1Cl)N[C@@H](c1cccs1)C[C@H]2C(F)(F)F (some centres not stated) | -6% | 0.87
64 | O=S(=O)(Nc1cnn(C[C@H]2COc3ccccc3O2)c1)C1CC1 | 17% | -2.18
65 | CCOC[C@H](O)COc1ccc(Br)cc1C#N | -14% | 1.58
66 | NC(=O)c1ccc(CN2CCCS2(=O)=O)cc1 | -5% | 0.89

Row | Compound | % Inhibition | Z score
67 | Cc1noc(-c2cc(C)c(C)c(S(N)(=O)=O)c2)n1 | 0% | 0.06
68 | O=C(c1ccncc1)N1CCN(Cc2cccnc2)[C@@H]2CS(=O)(=O)C[C@@H]21 | -18% | 2.15
69 | O=C(CN1CCCN(c2ccc3nccnc3n2)CC1)N1CCCC1 | -7% | 0.62
70 | CC(C)c1nnc(C(=O)NCc2cccnc2NCCN(C)C)s1 | -6% | 0.82
71 | CNC(=O)NC1CN(C(=O)Nc2cc(F)ccc2C)C1 | -8% | 0.87
72 | Cc1c[nH]c(-c2nccn2Cc2cnc3ccccc3c2)n1 | -19% | 1.88
73 | O=S(=O)(c1ccc2c(c1)CCCC2)N1CCN(c2nccs2)CC1 | 27% | -3.02
74 | Cc1cc2sc(-c3ccccc3)c([O-])[n+]2cn1 | 35% | -5.01
75 | Cc1cccc(Cc2c(C)nc(C)nc2N2CCN(C(=O)c3ccccc3Cl)CC2)c1 | 1% | -0.15
76 | Cc1ccnc(N[C@H](c2cccs2)c2cc(C)sc2NC(=O)c2ccccc2)c1 | 35% | -1.05
77 | CCNc1ncc(C(=O)N(CC)CCOc2ccc(F)cc2)cn1 | 8% | -0.96
78 | C[C@H](Oc1cccc(C#N)c1)C(=O)NS(=O)(=O)CCC(C)(C)C | 30% | -3.84
79 | CCOC1CC(NC(=O)CO)C1Oc1ccccc1 (configuration not stated) | -6% | 0.75
80 | Cc1ccccc1C(=O)N1C[C@@H]2CN(C(=O)C3CCCC3)C[C@]2(C(=O)O)C1 | -3% | 0.47
81 | CCC(C)(CNC(=O)C(F)(F)c1ccc(OC)cc1)C(C)O (configuration not stated) | -14% | 2
82 | O=C(NCc1ccc(Br)cc1F)NC[C@H]1CCOC1 | -4% | 0.53
83 | CC(C)c1ccc(N2C(=O)CN(CCCc3ccccc3)[C@H]3CS(=O)(=O)C[C@H]32)cc1 | -7% | 0.98
84 | O=C(N[C@@H](CC1CCCCC1)c1ncccn1)c1ccncc1F | -19% | 1.95
85 | CC1=C(CCN[C@@H]2C[C@@H](C(=O)NC(C)C)N(C(C)C)C2)C(C)(C)CCC1 | -8% | 1
86 | Cc1ccc2cc1Oc1cccc(c1)CO[C@H]1CCN(C(=O)CC3CC3)C[C@H]1NC(=O)CN(C)C2=O | 2% | -0.45
